The whole screen tested about 220,000 compounds, of which about 16,000 (7.3%) were called active. The shares of active, inactive and inconclusive entries below differ from those in the screen. Calls come from the whole dose curve; as a rule, active = well fitted inhibition curve with a large enough effect (not every such curve was filed as active); inconclusive = small, poorly fitted or top-dose-only effect, or another doubt; inactive = no such curve, though single readings can be large or run the other way. No potency is given beside an inconclusive call; the fits are too rough.
target: Aldehyde dehydrogenase 1A1 (Homo sapiens) (UniProt P00352); assay: qHTS Assay for Inhibitors of Aldehyde Dehydrogenase 1 (ALDH1A1); details: Purified ALDH1A1, NADH fluorescence, propionaldehyde substrate; series mostly up to 75.3 µM
Sequence of UniProt P00352 (P00352 whole entry, looked up): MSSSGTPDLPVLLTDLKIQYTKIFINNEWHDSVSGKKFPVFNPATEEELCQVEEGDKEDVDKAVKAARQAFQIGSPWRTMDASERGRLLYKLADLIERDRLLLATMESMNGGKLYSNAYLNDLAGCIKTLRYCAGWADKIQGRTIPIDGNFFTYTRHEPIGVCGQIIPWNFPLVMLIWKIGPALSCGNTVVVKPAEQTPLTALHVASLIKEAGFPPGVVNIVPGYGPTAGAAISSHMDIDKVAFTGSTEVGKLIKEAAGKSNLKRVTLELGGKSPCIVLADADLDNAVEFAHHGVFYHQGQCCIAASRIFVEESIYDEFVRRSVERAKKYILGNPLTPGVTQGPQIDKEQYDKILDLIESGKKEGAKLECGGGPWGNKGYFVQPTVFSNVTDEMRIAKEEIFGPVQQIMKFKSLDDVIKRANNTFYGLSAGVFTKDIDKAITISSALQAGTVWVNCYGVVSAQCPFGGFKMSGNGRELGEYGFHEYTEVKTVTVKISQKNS
Potency is the fitted concentration of half-maximal effect; tags give direction and shape of the fitted curve.

Row | Compound | Potency
1 | COc1cccc2c(=O)n(CC(=O)Nc3ccc(F)cc3)ccc12 | inconclusive [inhibitor, partial curve]
2 | O=C(Cc1cccc(C(F)(F)F)c1)NCc1cccc(Cl)c1 | inactive
3 | Cc1c(NC(=O)COC(=O)C(c2ccc(Cl)cc2)C(C)C)c(=O)n(-c2ccccc2)n1C (configuration not stated) | inactive
4 | Cc1csc2cc(-c3cccc([N+](=O)[O-])c3)c(-c3cccc([N+](=O)[O-])c3)c[n+]12 | inactive
5 | Cc1cc(C)c2nc3s/c(=C/c4ccc5c(c4)n(C)c(=O)n5C)c(=O)n3c2c1 | active: 17.8 µM
6 | CCCOC(=O)c1ccc(NC(=O)Oc2ccccc2)cc1 | active: 25.1 µM
7 | CCOC(=O)C1CCCN(C(=O)CC(c2ccccc2)c2ccccc2)C1 (configuration not stated) | inactive
8 | Cc1cccc(NC(=O)/C(C#N)=C\c2cc(C)n(-c3ccc(C(=O)O)cc3)c2C)c1 | active: 3.16 µM
9 | CC(C)(c1cc(Br)c(OCC(Br)CBr)c(Br)c1)c1cc(Br)c(OCC(Br)CBr)c(Br)c1 (configuration not stated) | inconclusive [inhibitor, single point]
10 | CC(=O)OC1CCC2(C)C3CCC4(C)C(CC5CCCCC54C(C)=O)C3CC(=O)[C@@]2(O)C1 (some centres not stated) | inactive
11 | COC(=O)c1cc([N+](=O)[O-])ccc1N1CCN(Cc2ccccc2)CC1 | inconclusive [inhibitor, single point]
12 | CCCCc1c(O)nc(SCC(=O)Nc2ccc3c(c2)CCC3)[nH]c1=O | inconclusive [inhibitor, single point]
13 | COC(=O)c1ccc(C(NC(=O)OCc2ccccc2)/C(=C/[C@@H](C)C(=O)N(C)Cc2ccccc2)c2cccnc2)cc1 (some centres not stated) | inactive
14 | CC(On1nnc2ccccc21)C(=O)N1CCN(Cc2ccccc2)CC1 (configuration not stated) | inactive
15 | O=C(Nc1nnc(C2CC2)s1)C1Cc2ccccc2CN1S(=O)(=O)c1cccs1 (configuration not stated) | inactive
16 | c1ccc(CSc2nnc(NC3=NCCCCC3)s2)cc1 | inconclusive [inhibitor, single point]
17 | Cc1ccc(NC(=O)c2noc(C(C)C)c2[N+](=O)[O-])cc1 | active: 10 µM
18 | CC(C(=O)NC1CCCC1)N1CCN(Cc2ccccc2)CC1 (configuration not stated) | active: 3.55 µM
19 | COc1cc(C2CC(=O)Oc3cc(C)c(Br)c(C)c32)cc(OC)c1OC (configuration not stated) | inactive
20 | Cn1c(C2=C(O)CN(c3ccccc3)C2=N)nc2ccccc21 | inactive
21 | O=C(Nc1ccccc1)C1=C(O)CC(c2ccc(Cl)cc2)N2CCN=C12 (configuration not stated) | active: 14.1 µM
22 | O=C(CN1C(=O)C2CC=CCC2C1=O)Nc1nnc(SCc2ccc(F)cc2)s1 (configuration not stated) | inconclusive [inhibitor, single point]
23 | Cc1cc(/C=C(/C#N)c2nc3ccccc3[nH]2)c(C)n1-c1ccccc1C(=O)O | inconclusive [inhibitor, partial curve]
24 | Cc1cc2c(cc1C)C(c1ccsc1)CC(=O)N2 (configuration not stated) | inconclusive [inhibitor, full curve, poor fit]
25 | CC1=CC(=C(C#N)C#N)c2ccccc2N1C | inconclusive [inhibitor, single point]
26 | Cc1ccsc1C(=O)NNC(=O)C1C2C=CC(C2)C1C(=O)O (configuration not stated) | inconclusive [inhibitor, single point]

Row | Compound | Potency
27 | CCN(CC)S(=O)(=O)c1cc(-c2nn(C)c(=O)c3ccccc23)ccc1C | inconclusive [inhibitor, single point]
28 | COc1ccc(CCN(C)CCN2C(=O)c3ccccc3C2=O)cc1OC | inactive
29 | O=C(/C=C/c1ccc([N+](=O)[O-])cc1)NCCSCc1ccco1 | inconclusive [inhibitor, single point]
30 | COc1ccc(C(=O)N2CC3(CC(c4ccc(Cl)cc4)=NO3)C[C@H]2C(=O)NCC(N)=O)cc1 (some centres not stated) | inactive
31 | O=C1C(Cl)=C(N2CCN(Cc3ccccc3)CC2)C(=O)N1Cc1ccccc1 | inconclusive [inhibitor, partial curve]
32 | CCN(CC)c1nc2cc(C)ccc2cc1/C=C(\C#N)C(N)=O | inconclusive [inhibitor, partial curve]
33 | COc1ccc([N+](=O)[O-])cc1NC(=O)C(C)c1ccccc1 (configuration not stated) | inactive
34 | CCSc1nc2ccccc2n1C(=O)c1ccc(S(=O)(=O)N2CCCCC2)cc1 | inconclusive [inhibitor, single point]
35 | COc1ccccc1NC(=S)N1CCC(NC(=O)c2ccco2)CC1 | inconclusive [inhibitor, single point]
36 | O=C(CSCc1ccccc1)N1CCN(C(=O)c2ccco2)CC1 | inconclusive [inhibitor, single point]
37 | O=C(c1ccccc1)c1ccc(OCCOCCN2CCN(Cc3ccccc3)CC2)cc1 | active: 17.8 µM
38 | CN1/C(=C\C(=O)c2cccc(S(=O)(=O)N3CCCCC3)c2)C(C)(C)c2ccccc21 | inconclusive [inhibitor, single point]
39 | COCCc1ccc(OC[C@H](O)CNC(C)C)cc1 | inactive
40 | O=C(CSc1nnc(NC(=O)C2CC2)s1)NCc1ccco1 | inconclusive [inhibitor, single point]
41 | CCCN1/C(=C2/SC(=S)N(CC)C2=O)C=Cc2ccccc21 | inconclusive [inhibitor, full curve]
42 | Cc1cc(Nc2cccc(C(F)(F)F)c2)n2nc(C)nc2n1 | inactive
43 | CC1=C(C(=O)OCc2ccc3c(c2)OCO3)C(c2ccc(Cl)cc2)NC(=O)N1 (configuration not stated) | inactive
44 | Cc1ccc(C)c(NC(=O)CSc2nnc(-c3n[nH]c4ccccc34)o2)c1 | inconclusive [inhibitor, single point]
45 | Cc1ccccc1OCCn1cc(C(=O)O)c2ccccc21 | inactive
46 | COCc1cc(C)nc(N)c1C#N | inconclusive [inhibitor, partial curve]
47 | O=C1CC(c2ccccc2O)Oc2ccc(O)cc21 (configuration not stated) | inactive
48 | COc1ccc2cc(CN(CCc3ccccc3)Cc3nnnn3Cc3ccco3)c(=O)[nH]c2c1 | active: 0.0794 µM
49 | COc1ccc(C(=O)C(Cc2cc(C(C)=O)ccc2OC)N2CCCC2)cc1 (configuration not stated) | inconclusive [inhibitor, single point]
50 | Cc1nc(NC(=O)c2oc3ccccc3c2C)sc1C(=O)N(C)C | inactive
51 | N#Cc1c(N)nc2c(c1-c1ccncc1)CCCC2 | inconclusive [inhibitor, partial curve]
52 | O=C(CSc1nc2ccc([N+](=O)[O-])cc2[nH]1)c1ccc2ccccc2c1 | inconclusive [inhibitor, single point]

Row | Compound | Potency
53 | O=C(CSc1nnc(-c2cccnc2)s1)Nc1ccc(C(=O)O)cc1 | inconclusive [inhibitor, single point]
54 | O=C(Cn1cnc2ccccc21)N/N=C/c1ccc([N+](=O)[O-])cc1 | inconclusive [inhibitor, single point]
55 | CCCN(CC1CC1)C(=O)COC(=O)c1[nH]c(C)c(C(=O)OCC)c1C | inactive
56 | Cc1ccc(NC(N)=S)cc1 | inactive
57 | N#CCC(N)=C(C#N)C#N | inactive
58 | Cc1ccc2c(CN3CCCc4ccccc43)cc(=O)oc2c1C | active: 15.8 µM
59 | O=C1c2ccccc2C(Nc2ccc3c(c2)OCCO3)N1Cc1ccccc1 (configuration not stated) | inconclusive [inhibitor, full curve]
60 | Cc1c(-c2ccccc2)oc2cc(O)ccc2c1=O | inconclusive [inhibitor, single point]
61 | CN(C)C=Nc1ncc2c([nH]c3ccccc32)c1C#N | inconclusive [inhibitor, single point]
62 | COc1cc(NC(=S)N2CCN(C)CC2)c(OC)cc1Cl | inactive
63 | C=CCOc1c(CNc2cccc(C(=O)O)c2)cccc1OC | inconclusive [inhibitor, single point]
64 | Cc1cccc2[nH]c(-c3ccc(NC(=O)c4ccco4)cc3)nc12 | inconclusive [inhibitor, single point]
65 | CCCC(c1nnnn1CCc1ccccc1)N1CCN(C(=O)c2ccco2)CC1 (configuration not stated) | inconclusive [inhibitor, single point]
66 | COc1ccccc1C(=O)Nc1c2c(nn1-c1cccc(C)c1C)CS(=O)(=O)C2 | inconclusive [inhibitor, single point]
67 | O=C(COC(=O)CC1CC2CCC1C2)Nc1cccc(S(=O)(=O)NC2=NCCCCC2)c1 (configuration not stated) | inconclusive [inhibitor, single point]
68 | CCN(CC)C(=O)C(=O)N/N=C/c1ccc(F)cc1 | inactive
69 | O=C1C2CC=CCC2C(=O)N1c1ccc(NCCc2ccc(O)cc2)c([N+](=O)[O-])c1 (configuration not stated) | inconclusive [inhibitor, partial curve]
70 | O=C(O)COc1ccc(Br)cc1/C=N/O | inactive
71 | Cc1ccc(-c2csc3ncnc(Oc4ccc5c(C)cc(=O)oc5c4)c23)cc1 | inactive
72 | Cc1cc2nc(N)sc2cc1C | inactive
73 | C#CC[N+]1(CC#Cc2ccc(C)cc2)CCCCC1 | inactive
74 | O=c1oc(-c2ccco2)nc2ccccc12 | inconclusive [inhibitor, single point]
75 | O=C(c1ccc(S(=O)(=O)N2CCOCC2)cc1)N1CCN(c2cccc(Cl)c2)CC1 | inconclusive [inhibitor, partial curve]
76 | O=C(CSc1nnc(Cc2ccccc2)o1)c1ccccc1 | inactive
77 | Cc1ccc(CNc2ncccc2-c2nc3cc(Cl)ccc3o2)cc1 | inconclusive [inhibitor, partial curve]
